We go through five molecules from US11891445 (ABL BIO, dated 2024).

For experiment [1], the target named is T1, human B7-H3 expressed on a cell surface (human cancer cell lines) (human, UniProt Q5ZPR3 29-534).
T1 construct: whole, on cells; also called cell surface expression B7-H3 antigen
T1 sequence (looked up): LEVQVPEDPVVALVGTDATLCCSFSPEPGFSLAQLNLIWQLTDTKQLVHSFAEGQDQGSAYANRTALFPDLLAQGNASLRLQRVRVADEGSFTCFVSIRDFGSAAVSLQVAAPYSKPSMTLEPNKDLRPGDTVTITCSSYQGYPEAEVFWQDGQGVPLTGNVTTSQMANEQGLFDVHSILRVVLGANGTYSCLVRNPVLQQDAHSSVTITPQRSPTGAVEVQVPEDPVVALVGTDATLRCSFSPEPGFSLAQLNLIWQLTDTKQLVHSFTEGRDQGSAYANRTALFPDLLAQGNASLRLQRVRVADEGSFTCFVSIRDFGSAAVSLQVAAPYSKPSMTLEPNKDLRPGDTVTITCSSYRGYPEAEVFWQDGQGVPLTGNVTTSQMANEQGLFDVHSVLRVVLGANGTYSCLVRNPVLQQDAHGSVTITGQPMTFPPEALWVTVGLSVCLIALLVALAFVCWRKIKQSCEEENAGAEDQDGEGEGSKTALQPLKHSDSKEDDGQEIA
Kind of experiment: flow cytometry, MDA-MB-468 cells, antibody 10 ug/ml.

The target in experiment [2] is T1, human B7-H3 expressed on a cell surface …. Kind of experiment: flow cytometry, JeKo-1 cells, antibody 10 ug/ml. The text has this: (§1) Using various kinds of cancer cells A2780 (human ovarian cancer, ECACC, 93112519), SKOV-3 (human ovarian adenocarcinoma, ATCC® HTB-77™) OVCAR-3 (human ovarian adenocarcinoma, ATCC® HTB-161™), HCT116 (colon cancer cell, ThermoFIshcer Sci), HT29 (olorectal adenocarcinoma, ATCC® HTB-38™), DLD-1 (colorectal adenocarcinoma cell lines, ATCC® CCL-221™), Calu-6 (Non-small-cell lung carcinoma, ATCC® HTB-56™), HCC1954 (TNM stage IIA, grade 3, ductal carcinoma, ATCC® CRL-2338™), HCC1187 (TNM stage IIA, ATCC® CLC-2322™), renal cancer cell line 786-0 (renal cell adenocarcinoma, ATCC® CRL-1932™), A498 (kidney carcinoma, ATCC® HTB-44™), Panc-1 (pancreas epithelioid carcinoma, TCC CRL-1469™), NCI-N87 (gastric carcinoma, TCC CRL-5822™), HeLa (cervix adenocarcinoma, ATCC® CCL-2™), JeKo-1 (Lymphoma, ATCC® CRL-3006™) and FACSCalibur (BD Biosciences) device, the degree of binding of anti-B7-H3 antibody to B7-H3 was measured as follows.
(§2) After dissociating each cell line and washing it with PBS buffer, the number of cells was counted and adjusted to 2×10^5 cells/200 µl PBS, and then was treated with 10 µg/ml of B7-H3 monoclonal antibodies prepared in Example 2. Reaction was allowed at 4° C. for 1 hr. After washing the reacted cells in PBS, the FITC-labeled constant region (Fc)-specific antibody (Goat anti-human IgG FITC conjugate, Fc specific, Sigma, F9512, concentration: 2.0 mg/ml)) was diluted by 1:500 and added 100 µl per well. and Reaction was allowed at 4° C. for 1 hr. After the reaction, cells were washed in PBS and analyzed using the FACSCalibur device. The negative control group was treated by the FITC-labeled constant region (Fc) specific antibody only. To compare expression degrees of B7-H3 among different cancer cell lines, the value for the peak shift in the experimental groups treated with the B7-H3 monoclonal antibody was divided by the value for the peak shift in the negative control group (MFI Ratio, Mean Fluorescence Intensity Ratio).

The target of experiment [3] is T2, recombinant human B7-H3 protein with a histidine tag linked to the C terminal (2318-B3/CF, R&D Systems) (human, UniProt Q5ZPR3 29-461).
T2 construct: range 1-461; Bought; also called B7-H3-His antigen; recombinant human B7-H3-his protein
T2 sequence (looked up): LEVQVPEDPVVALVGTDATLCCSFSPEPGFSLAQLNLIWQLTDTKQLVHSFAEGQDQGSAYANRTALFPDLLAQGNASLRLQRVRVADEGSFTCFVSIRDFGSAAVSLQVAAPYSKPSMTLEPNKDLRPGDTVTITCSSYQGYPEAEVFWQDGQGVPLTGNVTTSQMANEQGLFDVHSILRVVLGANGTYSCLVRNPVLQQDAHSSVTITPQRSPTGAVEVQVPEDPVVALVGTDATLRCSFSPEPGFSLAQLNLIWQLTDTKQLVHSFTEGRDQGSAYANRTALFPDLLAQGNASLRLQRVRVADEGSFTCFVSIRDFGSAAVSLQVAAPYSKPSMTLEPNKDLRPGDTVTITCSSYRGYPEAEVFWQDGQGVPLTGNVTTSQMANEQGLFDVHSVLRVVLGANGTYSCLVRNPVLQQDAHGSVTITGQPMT
Description: SPR, antibody captured on Protein A chip, B7-H3 antigen 3.125-100 nM as analyte. As to the method:
The binding affinity of antigen B7-H3 and anti-B7-H3 antibody was measured by SPR method. First, anti-B7-H3 antibody diluted by 1×HBS-EP buffer was captured with 50 RU on Protein A chip (GE healthcare, Cat. No. 29127556) at a contact time of 60 sec, a stabilization period of 60 sec and a flow rate of 30 µl/min. With 1×HBS-EP buffer, the antigen B7-H3 (R&D systems, 2318-B3-050/CF) was serially two-fold diluted starting from 100 nM to 3.125 nM. At this point, 1×HBS-EP buffer was additionally prepared as a blank. The B7-H3 antigen prepared on the chip in which the anti-B7-H3 antibody was captured was flowed at a flow rate of 30 µl/min for the association time of 60 sec and dissociation time of 180 sec. Regeneration was conducted with 10 mM Glycine-HCl pH1.5 (GE healthcare, Cat. No. BR100354) at a flow time of 30 µl/min and a contact time of 30 sec.

Experiment [4] addresses T1, human B7-H3 expressed on a cell surface …. Description: flow cytometry, Hela cells, antibody 10 ug/ml.
Source text: as §1, §2

Experiment [5] shares this target. Kind of experiment: flow cytometry, MCF-7 cells, antibody 10 ug/ml.
Experiment [6] has the same target. Description: flow cytometry, A2780 cells, antibody 10 ug/ml.
Source text: as §1, §2

For experiment [7] the target is unchanged. Kind of experiment: flow cytometry, OVCAR-3 cells, antibody 10 ug/ml.
Source text: as §1, §2

B1: anti-B7-H3 antibody D8G (full IgG form) (antibody)
heavy: EVQLLESGGGLVQPGGSLRLSCAASGFTFSSYSMSWVRQAPGKGLEWVSGIYSDGSNTYYADSVKGRFTISRDNSKNTLYLQMNSLRAEDTAVYYCAKMLHRFDYWGQGTLVTVSS[human IgG1 constant region not shown]
light: QSVLTQPPSASGTPGQRVTISCSGSSSNIGSNSVTWYQQLPGTAPKLLIYADSQRPSGVPDRFSGSKSGTSASLAISGLRSEDEADYYCGTWDSSLNAYVFGGGTKLTVLGQPKAAPSVTLFPPSSEELQANKATLVCLISDFYPGAVTVAWKADSSPVKAGVETTTPSKQSNNKYAASSYLSLTPEQWKSHRSYSCQVTHEGSTVEKTVAPAECS
Turning to B1, the “MFI Ratio” value in experiment [1] is 11.4 ratio; in experiment [2] it was 3.1 ratio; in experiment [4], 30.2 ratio; in experiment [5], 136 ratio; in experiment [6], 21.6 ratio; in experiment [7], 26.7 ratio. The Kd in experiment [3] was determined as 18.5 nM. The koff in experiment [3] came out at 0.00381 s⁻¹. In addition, the kon in experiment [3] turned out to be 206000 M⁻¹ s⁻¹.

B2: anti-B7-H3 antibody B5 (full IgG form) (antibody)
heavy: EVQLLESGGGLVQPGGSLRLSCAASGFTFSDYAMSWVRQAPGKGLEWVSSISSGSGSIYYADSVKGRFTISRDNSKNTLYLQMNSLRAEDTAVYYCAKNLIPLDYWGQGTLVTVSS[human IgG1 constant region not shown]
light: QSVLTQPPSASGTPGQRVTISCSGSSSNIGSNAVSWYQQLPGTAPKLLIYYNSHRPSGVPDRFSGSKSGTSASLAISGLRSEDEADYYCGSWDASLNAYVFGGGTKLTVLGQPKAAPSVTLFPPSSEELQANKATLVCLISDFYPGAVTVAWKADSSPVKAGVETTTPSKQSNNKYAASSYLSLTPEQWKSHRSYSCQVTHEGSTVEKTVAPAECS
With B2, the “MFI Ratio” value was 16.2 ratio in experiment [1]; 1.5 ratio in experiment [2]; 38.7 ratio in experiment [4]; 154 ratio in experiment [5]; 26.6 ratio in experiment [6]; 33.1 ratio in experiment [7]. The Kd in experiment [3] was 3.02 nM. Moreover, the koff in experiment [3] was determined as 0.00112 s⁻¹. Moreover, in experiment [3], the association rate constant (kon) is 372000 M⁻¹ s⁻¹.

B3: anti-B7-H3 antibody C4I (full IgG form) (antibody)
heavy: EVQLLESGGGLVQPGGSLRLSCAASGFTFSGYYMSWVRQAPGKGLEWVSLISPSSGSIYYADSVKGRFTISRDNSKNTLYLQMNSLRAEDTAVYYCAKGLTKFDYWGQGTLVTVSS[human IgG1 constant region not shown]
light: QSVLTQPPSASGTPGQRVTISCTGSSSNIGSNDVSWYQQLPGTAPKLLIYANSHRPSGVPDRFSGSKSGTSASLAISGLRSEDEADYYCGSWDDSLSGYVFGGGTKLTVLGQPKAAPSVTLFPPSSEELQANKATLVCLISDFYPGAVTVAWKADSSPVKAGVETTTPSKQSNNKYAASSYLSLTPEQWKSHRSYSCQVTHEGSTVEKTVAPAECS
notes: also called C41
Regarding B3, the “MFI Ratio” value came to 9.7 ratio in experiment [1]; 7.9 ratio in experiment [2]; 26.1 ratio in experiment [4]; 109 ratio in experiment [5]; 18.3 ratio in experiment [6]; 22.4 ratio in experiment [7]. Moreover, the Kd in experiment [3] was 7.69 nM. The koff in experiment [3] came out at 0.00341 s⁻¹. The association rate constant (kon) in experiment [3] stood at 444000 M⁻¹ s⁻¹.

B4: anti-B7-H3 antibody F6V (full IgG form) (antibody)
heavy: EVQLLESGGGLVQPGGSLRLSCAASGFTFSDYAMSWVRQAPGKGLEWVSGISPGGSNTYYADSVKGRFTISRDNSKNTLYLQMNSLRAEDTAVYYCAKDAWIARLLLFDYWGQGTLVTVSS[human IgG1 constant region not shown]
light: QSVLTQPPSASGTPGQRVTISCSGSSSNIGSNAVTWYQQLPGTAPKLLIYYNNKRPSGVPDRFSGSKSGTSASLAISGLRSEDEADYYCGTWDDSLSGYVFGGGTKLTVLGQPKAAPSVTLFPPSSEELQANKATLVCLISDFYPGAVTVAWKADSSPVKAGVETTTPSKQSNNKYAASSYLSLTPEQWKSHRSYSCQVTHEGSTVEKTVAPAECS
For B4, the “MFI Ratio” value in experiment [1] came to 17.6 ratio; in experiment [4] it was 42.7 ratio; in experiment [5], 151 ratio; in experiment [6] it was 25.2 ratio; in experiment [7], 33.1 ratio. For the same molecule, the equilibrium dissociation constant (Kd) in experiment [3] amounted to 8.03 nM. Moreover, the koff in experiment [3] is 0.00088 s⁻¹. In experiment [3], the association rate constant (kon) was found to be 110000 M⁻¹ s⁻¹.

B5: anti-B7-H3 antibody 10F11 (full IgG form) (antibody)
heavy: EVQLLESGGGLVQPGGSLRLSCAASGFTFSSYGMSWVRQAPGKGLEWVSGIYSGGSSKYYADSVKGRFTISRDNSKNTLYLQMNSLRAEDTAVYYCAKNRLRFDYWGQGTLVTVSS[human IgG1 constant region not shown]
light: QSVLTQPPSASGTPGQRVTISCTGSSSNIGSNSVTWYQQLPGTAPKLLIYSDSHRPSGVPDRFSGSKSGTSASLAISGLRSEDEADYYCGTWDASLNAYVFGGGTKLTVLGQPKAAPSVTLFPPSSEELQANKATLVCLISDFYPGAVTVAWKADSSPVKAGVETTTPSKQSNNKYAASSYLSLTPEQWKSHRSYSCQVTHEGSTVEKTVAPAECS
For the molecule B5, the “MFI Ratio” value stood at 17.2 ratio in experiment [1]; 1.7 ratio in experiment [2]; 40.6 ratio in experiment [4]; 152 ratio in experiment [5]; 25.5 ratio in experiment [6]; 35.6 ratio in experiment [7]. Further, the Kd in experiment [3] came to 10.4 nM. Besides, the koff in experiment [3] was 0.0037 s⁻¹. In addition, the on-rate constant (kon) in experiment [3] is 357000 M⁻¹ s⁻¹.
